# Assay results: the BET-seq Pho4 binding data (Le et al. 2018)
# Some of the results follow. Values were computed here from the reads of four pooled replicates and scatter widely.
# Target: T1, Pho4 (S. cerevisiae) (UniProt P07270)
# T1 sequence: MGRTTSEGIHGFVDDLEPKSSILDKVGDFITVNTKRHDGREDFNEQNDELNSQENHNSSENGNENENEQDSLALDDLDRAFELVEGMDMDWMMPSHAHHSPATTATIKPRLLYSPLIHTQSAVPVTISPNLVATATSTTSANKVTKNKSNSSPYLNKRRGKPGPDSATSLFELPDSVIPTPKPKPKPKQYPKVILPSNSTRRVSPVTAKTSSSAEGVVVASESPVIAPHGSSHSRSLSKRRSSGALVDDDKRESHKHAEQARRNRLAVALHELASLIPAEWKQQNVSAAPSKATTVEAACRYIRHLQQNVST
# Experiment: relative binding free energy (BET-seq); higher = weaker binding
# Conditions: reference: library average
row,Sequence,relative binding free energy [kcal/mol]
1,CTTGGCACGTGGGAAA,-0.16
2,ATAAGCACGTGGTTCT,-0.18
3,GGTTACACGTGAGGGA,0.4
4,TGAGTCACGTGAGTTA,0.27
5,AGGGGCACGTGGCAAA,-0.15
6,TAGTGCACGTGTTGTG,-0.08
7,TGGTGCACGTGGGTAT,-0.03
8,AAGGACACGTGTTTAT,0.17
9,AAATTCACGTGCAGGT,0.28
10,ATGGACACGTGGTATG,-0.06
11,TTCGTCACGTGAGTGC,0.26
12,GGAGGCACGTGGTTGG,-0.16
13,GTGTGCACGTGAGGTG,0.25
14,GTGGACACGTGAAGGC,0.33
15,TATTTCACGTGAGTGC,0.49
16,ATTGACACGTGGGAGA,-0.16
17,GCGGGCACGTGACGGG,0.05
18,TCTTTCACGTGTCTGT,0.14
19,CGTTTCACGTGCGTGG,0.2
20,CTGGGCACGTGGATCG,-0.09
21,GGGAGCACGTGGAGCA,-0.16
22,GACCTCACGTGGGGGT,0.14
23,TGCTACACGTGTTGTG,0.16

row,Sequence,relative binding free energy [kcal/mol]
1,AGATACACGTGCGTTT,0.01
2,AGATTCACGTGCGGTA,0.21
3,TGAGTCACGTGCTGCT,0.08
4,TGTTTCACGTGGATAG,0.34
5,AAGATCACGTGAGTTT,0.42
6,TATTACACGTGTGCGT,-0.01
7,TTTGACACGTGCCGTT,0.02
8,AAGTTCACGTGAGTTG,0.38
9,AATTGCACGTGGAAGT,-0.1
10,GGAGGCACGTGGCGTT,-0.22
11,AGGAACACGTGTGATG,0.03
12,TTTGGCACGTGAGTGT,0.11
13,AATTGCACGTGCGGTG,0.07
14,GTCGGCACGTGATTGT,0.23
15,TTTGTCACGTGAATAA,0.29
16,ATAGACACGTGTTGCG,0.04
17,AGTAACACGTGAGCGG,0.15
18,ACTGACACGTGAAGGT,0.22
19,TTGCGCACGTGCGAGT,-0.07
20,GGGGACACGTGGCGCT,-0.12
21,TGAACCACGTGATGTT,0.29
22,TTTTACACGTGTAGAA,0.14
23,TATGACACGTGGTTAT,-0.12

row,Sequence,relative binding free energy [kcal/mol]
1,ACAGGCACGTGGGATG,-0.12
2,TGGTTCACGTGCTGAT,0.35
3,ATTTTCACGTGACGTA,0.21
4,GGTGACACGTGTGAGT,0.05
5,TAAGGCACGTGTTGCA,-0.14
6,TGCAGCACGTGAGTTA,0.19
7,CATTACACGTGAGGGT,0.28
8,TTGGCCACGTGGCTGG,-0.04
9,GATTACACGTGTGTCA,0.33
10,TTGTTCACGTGGTAAT,0.22
11,TGATGCACGTGAAAAG,0.17
12,CGTTGCACGTGTAGTA,0.04
13,GTAATCACGTGTGTTT,0.3
14,TAAATCACGTGTGTCA,0.13
15,GGAACCACGTGGTGTG,-0.05
16,GGTATCACGTGGTGCC,0.25
17,TATGGCACGTGCTGGG,-0.18
18,CGCGTCACGTGTGTAG,0.11
19,TATGGCACGTGAGTAT,-0.01
20,TTTGTCACGTGTTGAC,0.08
21,TGCTGCACGTGGCGGG,-0.01
22,CGGGTCACGTGTTTCG,0.13
23,TTTGTCACGTGTTCTG,0.12

row,Sequence,relative binding free energy [kcal/mol]
1,GTTGGCACGTGCTCTG,-0.08
2,TGGGTCACGTGGCCAT,0.05
3,GTCTGCACGTGAGGTT,0.34
4,CCGTGCACGTGGTAGT,-0.07
5,TGGGGCACGTGAGGGG,0.11
6,GCAGTCACGTGGGGCG,-0.06
7,TTTGGCACGTGGACAT,-0.12
8,AGATACACGTGTGGTA,0.1
9,TTGTCCACGTGTAGGA,0.07
10,GTACGCACGTGAGTGG,-0.05
11,ATAGGCACGTGGGGAG,-0.24
12,AGGTCCACGTGTGGAT,0.03
13,GGGGTCACGTGGGCTT,0.11
14,AGGTTCACGTGGGCTC,0.17
15,ATCGTCACGTGTAGGG,0.01
16,TTGGTCACGTGTCCAT,0.19
17,GAATTCACGTGGTATA,0.24
18,GGATACACGTGTGGCG,0.08
19,ATATGCACGTGGAGGC,-0.03
20,GAGGGCACGTGGGGAC,-0.26
21,GGTATCACGTGATGGA,0.26
22,ATTCACACGTGGAGGT,0.08
23,CCTGGCACGTGTTTGA,-0.01

row,Sequence,relative binding free energy [kcal/mol]
1,TGGGGCACGTGGGGTA,-0.25
2,GTCGTCACGTGGGTTC,0.12
3,CGTTTCACGTGGAAGT,0.33
4,GGTTGCACGTGTATAC,0
5,CAGTTCACGTGAGTTT,0.43
6,CGAAGCACGTGTTGGT,-0.14
7,TAATTCACGTGAGGTG,0.33
8,ATTTTCACGTGCTGGT,0.03
9,CGTTTCACGTGATGGT,0.32
10,CTAGACACGTGTTGTT,-0.01
11,TACAGCACGTGGGTTT,-0.21
12,TTGGTCACGTGCGAGA,0.09
13,GTTAGCACGTGCTGTA,0.02
14,GCTTTCACGTGTGTTT,0.39
15,GGGTGCACGTGGCTAT,-0.07
16,TGTACCACGTGTTGTA,-0.01
17,AGGTGCACGTGAGAGA,0.24
18,ATGGGCACGTGTGATG,-0.04
19,AATGGCACGTGATAGA,0.04
20,ATGTACACGTGTCGTA,0.12
21,GGGTACACGTGTTCGT,0.18
22,TAAGTCACGTGGTTGC,0.18
23,AGAGTCACGTGTGAGC,0.29
